# Out of some 310,000 compounds screened, about 2,200 (0.71%) showed an effect of 50% or more. Effects have a minus sign here. The list shows a part of the results. *1 amine or outer side, *2 acyl side, *3 side chain or, on linkers, in order; H or OH if unused. Where a SMILES comes first, the peptide text is derived from it. Bridges are numbered along the chain shown (N, C = ends). [ ]: non-standard residue; d: D form. ξ: configuration not given here. hSer(Ph(2-I,4-NO2,6-CO)) = O=C([C@H](CCOc1c(I)cc([N+](=O)[O-])cc1C(=O)[*:3])N[*:1])[*:2]; ξD = NC(CC(=O)O)C(=O)O
# Target: human ether-à-go-go-related gene (hERG) potassium channel (human, UniProt Q12809)
# Sequence (Q12809 whole entry, looked up): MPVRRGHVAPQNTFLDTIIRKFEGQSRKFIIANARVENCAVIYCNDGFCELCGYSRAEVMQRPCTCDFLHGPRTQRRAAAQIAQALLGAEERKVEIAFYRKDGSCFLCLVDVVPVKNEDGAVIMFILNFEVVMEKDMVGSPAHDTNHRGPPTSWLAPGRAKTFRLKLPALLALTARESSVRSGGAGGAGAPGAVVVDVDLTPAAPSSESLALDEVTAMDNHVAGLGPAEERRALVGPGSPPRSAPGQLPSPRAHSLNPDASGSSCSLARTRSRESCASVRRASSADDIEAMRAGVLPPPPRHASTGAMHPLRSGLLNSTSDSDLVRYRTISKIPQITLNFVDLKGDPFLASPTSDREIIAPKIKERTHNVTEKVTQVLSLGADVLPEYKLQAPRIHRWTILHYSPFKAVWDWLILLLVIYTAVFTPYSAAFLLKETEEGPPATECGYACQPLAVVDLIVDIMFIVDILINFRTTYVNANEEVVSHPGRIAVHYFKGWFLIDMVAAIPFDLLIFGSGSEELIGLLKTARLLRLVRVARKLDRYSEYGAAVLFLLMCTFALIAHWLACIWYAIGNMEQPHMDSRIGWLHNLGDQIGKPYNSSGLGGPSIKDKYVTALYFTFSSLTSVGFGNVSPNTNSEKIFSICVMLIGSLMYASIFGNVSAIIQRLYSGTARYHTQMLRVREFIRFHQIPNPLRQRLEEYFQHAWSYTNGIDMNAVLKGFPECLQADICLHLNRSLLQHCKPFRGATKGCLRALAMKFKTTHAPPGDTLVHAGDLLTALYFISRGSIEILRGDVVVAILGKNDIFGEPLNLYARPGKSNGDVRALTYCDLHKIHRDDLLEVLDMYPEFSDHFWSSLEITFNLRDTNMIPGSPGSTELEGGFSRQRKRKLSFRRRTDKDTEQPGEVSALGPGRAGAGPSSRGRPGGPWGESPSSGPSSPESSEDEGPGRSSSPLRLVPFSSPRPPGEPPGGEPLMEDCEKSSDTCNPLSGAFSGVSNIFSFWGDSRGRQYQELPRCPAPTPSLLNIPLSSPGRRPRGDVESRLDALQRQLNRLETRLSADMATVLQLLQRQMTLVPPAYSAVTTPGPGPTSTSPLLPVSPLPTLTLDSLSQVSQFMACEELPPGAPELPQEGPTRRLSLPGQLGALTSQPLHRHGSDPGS
# Test: primary screen, population patch clamp on CHO cells stably expressing hERG
row,Compound,"hERG current change (%, negative = inhibition) at 1uM [%]"
1,COc1cc(/C=C/C(=O)OCC(=O)Nc2cc(S(=O)(=O)N3CCCCC3)ccc2C)ccc1O,6.12
2,CC(C)(C)c1ccccc1NC(=O)c1c(O)c2cccc3c2n(c1=O)CC3,12.4
3,"C[C@@H]1NC(=O)c2cc([N+](=O)[O-])cc(I)c2OCC[C@@H](C(=O)NC(CC(=O)O)C(N)=O)NC(=O)[C@H](CCC(=O)O)NC1=O (some centres unmarked) (AE[hSer(Ph(2-I,4-NO2,6-CO))][ξD]-NH2; lactam N-3)",-0.507
4,COc1cccc2c(=S)c(CCC(C)=O)c(C)[nH]c12,11.3
5,NCCNC(=O)Cc1ccc(NC(=O)Cc2ccc(Nc3ncnc4c3ncn4[C@@H]3O[C@H](CO)[C@@H](O)[C@H]3O)cc2)cc1,18
6,Cc1cccc(/C=N/NC(=O)Cn2nccc2C)n1,1.2
7,Cc1ccc(N2CCN(C(=O)c3cn(CC4CCCCC4)nn3)C(C)C2)cc1 (centres unmarked),12.2
8,CN1C(=O)Cc2cc(S(=O)(=O)N3CCOCC3)ccc21,-4.57
9,CN(C(=O)c1ccno1)c1nnc(-c2cccnc2)s1,0.134
10,COc1cccc(-c2ccc3ncnc(NCc4cc(C)cs4)c3c2)c1,9.07
11,COc1ccc(C)cc1NC(=O)CCCN1C(=O)CCC1=O,-3.97
12,CCC(=O)n1nc(-c2cccnc2)nc1NCc1ccc(F)cc1,1.89
13,COc1ccc(CNC(=O)COc2ccc(C(=O)c3ccc(F)cc3)cc2)cc1,0.17
14,CCn1nc(C)c(NC(=O)c2ccc(Br)o2)c1C,14.3
15,O=S(=O)(Nc1nc2ccccc2nc1Cl)c1ccc(Cl)cc1,4.56
16,Cc1ccc(NC(=O)CSc2ccccc2NC(=O)c2ccccc2Cl)cc1Cl,9.04
17,Cc1ccc(C(=O)N2CCC(C(=O)NCc3ccco3)CC2)cc1,3.53
18,CC1(C)CC2CC(C)(CN2C(=O)C23CCC(C)(C(=O)C2)C3(C)C)C1 (centres unmarked),1.51
19,Cc1cc(C)cc(N2C(=O)NC(=O)/C(=C\C=C\c3ccco3)C2=O)c1,7.28
20,CC1CN(S(=O)(=O)c2cccc(C(=O)Nc3ccc(S(=O)(=O)NC4=NCCCCC4)cc3)c2)CC(C)O1 (centres unmarked),3.02
21,COC(=O)c1ccccc1-c1ccc(/C=N/NC(=O)c2cc3ccccc3o2)o1,-8.89
22,O=C1C2CCCN2C(c2cccs2)N1c1ccc(F)cc1 (centres unmarked),9.99

row,Compound,"hERG current change (%, negative = inhibition) at 1uM [%]"
1,Cn1cc(Cl)c(C(=O)N(Cc2ccccc2)c2ccccn2)n1,5.97
2,O=c1c2c([N+](=O)[O-])cc([N+](=O)[O-])cc2nc2ccccn12,9.36
3,Cc1oc(-c2ccccc2)nc1C(=O)N1CCN(c2ccc(F)cc2)CC1,5.4
4,Cc1cc(OC(=O)c2ccccc2)n(CCC#N)n1,9.76
5,Cc1ccc(-c2nc(CS(=O)CC(=O)NC3CCCC3)c(C)o2)cc1 (centres unmarked),1.66
6,CCOC(=O)c1cc(-c2ccccc2)n(CC(=O)Nc2cccc(OC)c2)c1C,9.91
7,Cn1cnnc1SCC(=O)Nc1ccccc1Oc1ccccc1,8.8
8,O=[N+]([O-])c1ccccc1CN1CCN(c2ncccn2)CC1,16.5
9,Cc1c(C(=O)C(=O)N2c3ccc(F)cc3CCC2C)c2ccccc2n1C (centres unmarked),30.6
10,CC(C)N(C(=O)Cn1c(=O)oc2ccccc21)c1ccccc1,5.61
11,COc1ccccc1OCC(=O)Nc1ccc(S(=O)(=O)Nc2nccs2)cc1,9.14
12,CCCCCCCCCCCCCCCC[N+](C)(C)C.O.[OH-],15.3
13,NC(=O)/C=C\c1cn(-c2ccccc2)nc1-c1ccc2c(c1)OCCO2,8.3
14,CCOc1ccc(NC(=O)CCN2CCN(S(=O)(=O)c3ccc(OC)cc3)CC2)cc1,7.61
15,CC(C(=O)NC1CCCC1)N1CCN(Cc2ccccc2)CC1 (centres unmarked),5.89
16,COc1cc(C(=O)NCCC2=CCCCC2)cc(OC)c1OC,5.62
17,COCCCNC(=S)N(CCCO)Cc1cc2cc3c(cc2[nH]c1=O)OCCO3,11.9
18,N#Cc1cc(Oc2cccnc2)c(Oc2cccnc2)cc1C#N,4.02
19,O=C1CCc2cc(S(=O)(=O)N3CCCC3C(=O)NC3CCCCCCC3)ccc2N1 (centres unmarked),-20.3
20,O=C(Nc1ccc(NC(=O)c2cc3ccccc3o2)cc1)c1ccc2c(c1)OCCO2,10.9
21,COc1ccccc1NC(=O)Nc1nnc(C(C)c2ccccc2)s1 (centres unmarked),10.7
22,Cc1cc(C(=O)NCCCN2CCCC2=O)cs1,20.1

row,Compound,"hERG current change (%, negative = inhibition) at 1uM [%]"
1,S=c1[nH]nc(-c2ccncc2)n1/N=C/C=C/c1ccccc1,13.9
2,CC1CCCC(C)N1NC(=O)c1ccc(Cl)c(S(N)(=O)=O)c1 (centres unmarked),-3.77
3,NC(=O)c1ccccc1NC(=O)CN1CCN(Cc2ccc(Cl)cc2Cl)CC1,-75.8
4,NS(=O)(=O)c1cc2c(cc1Cl)NC(C1C[C@H]3C=C[C@@H]1C3)NS2(=O)=O (some centres unmarked),13.6
5,Cc1ccc2[nH]c(=O)c3cc(C(=O)N(C)c4ccc(C)c(C)c4)sc3c2c1,12
6,COc1ccc(/C(O)=C/C(=O)C(=O)NNC(=O)C(O)(c2ccccc2)c2ccccc2)cc1,10.1
7,Cc1ccc2nc(N(CCN(C)C)C(=O)C3=COCCO3)sc2c1.Cl,-5.32
8,O=C(O)c1cccc(NS(=O)(=O)c2cccc3cccnc23)c1,6.39
9,CC1=NN(C(N)=S)C(=O)C1N=Nc1ccccc1 (centres unmarked),21.3
10,COc1cc(OC)c(C(=O)Nc2cccnc2)cc1OC,13.3
11,CCOC(=O)N1CCN(C(=O)c2ccc(Cl)c(S(=O)(=O)N3CCOCC3)c2)CC1,-5.1
12,O=C1CCc2cc(S(=O)(=O)NCCc3ccccc3)cc3c2N1CC3,2.08
13,O=C(/C=C/c1ccco1)Nc1ccc2nc3n(c(=O)c2c1)CCCC3,3.83
14,Cc1ccccc1C(=O)Nc1ccc(C(=O)N/N=C/c2ccncc2)cc1,7.48
15,Cc1ccc2c(c1)-n1c(nc3cc(F)ccc3c1=O)C(Cc1ccccc1)NC2=O (centres unmarked),14.9
16,Cc1ccc2cc(C#N)c(N3CCCN(S(=O)(=O)c4ccc(F)cc4)CC3)nc2c1,12.5
17,Cc1cc(C=C2C(=O)NC(=S)NC2=O)c(C)n1-c1ccc2c(c1)OCO2,4.91
18,CCC(CO)NCCNC(CC)CO (centres unmarked),17.3
19,COc1cc(/C=C2/SC(=S)N(CC(=O)O)C2=O)ccc1OC(=O)c1ccco1,7.62
20,Cc1ccc(NC(=S)N(CCCN2CCOCC2)Cc2ccco2)cc1,13.3
21,O=S(=O)(CCc1nc2ccccc2o1)c1ccc2ccccc2c1,8.57
22,Cc1nonc1CN(C)C(=O)CC1C(=O)NCCN1Cc1ccccc1F (centres unmarked),11.4

row,Compound,"hERG current change (%, negative = inhibition) at 1uM [%]"
1,CCOC(=O)c1ccc(NC2c3ccccc3C(=O)N2c2cccnc2)cc1 (centres unmarked),-3.3
2,CCOC(=O)[C@H]1[C@H]2COc3ccc(Cl)cc3[C@@H]2N2C(=O)c3ccccc3NC(=O)[C@@]12C,3.55
3,COc1ccc(OC)c(/C=N/n2c(COc3ccccc3)n[nH]c2=S)c1,12.6
4,COc1ccc2oc(=N)c(C(=O)Nc3ccc(F)cc3)cc2c1,22.5
5,Cc1ccc(C(=O)NCC(=O)OCC(=O)Nc2ccc(Cl)cn2)cc1,8.26
6,CC1(C)CC(=O)c2cnc3nc4ccccc4n3c2C1,0.441
7,COc1ccccc1C(=O)n1nc(-c2ccccc2)nc1NCc1ccco1,-14.3
8,O=C(NCc1ccncc1)C(=O)NCC1OCCN1S(=O)(=O)c1cc(F)ccc1F (centres unmarked),6.08
9,CCOC(=O)c1c(NC(=O)C2C3CCC(O3)C2C(=O)O)sc2c1CCCC2 (centres unmarked),16.7
10,CCc1ccc(NC(=O)C(NS(=O)(=O)c2ccc3c(c2)CCN3C(C)=O)C(C)C)cc1 (centres unmarked),8.51
11,Cc1ccc(CS(=O)(=O)CC(C)(O)c2ccccc2)cc1 (centres unmarked),13.1
12,CC(=O)NCCn1ccc2ccccc21,-2.38
13,Cc1ccc(OCCn2cc(Br)c(=O)[nH]c2=O)cc1,12.1
14,Cc1ccccc1CSCC(=O)c1c(N)n(C)c(=O)n(C)c1=O,0.719
15,CCN(CC)C(=O)C[n+]1cccc(C(N)=O)c1,8.47
16,CCC(C)(C)NC(=O)CN(C(=O)CNS(=O)(=O)c1ccccc1)c1ccc2c(c1)OCCO2,12.7
17,COc1cccc(COc2ccc3c(C)c(Cc4ccccc4)c(=O)oc3c2)c1,8.92
18,Cc1c(C(=O)N/N=C/c2ccccc2)sc(=S)n1C,11.2
19,COc1ccc(-n2cc(-c3ccc(Br)cc3)[nH]c2=S)cc1,14
20,CCn1c(SCC(=O)NCC2CCCO2)nc2c(c1=O)SCC2 (centres unmarked),14

# Reference: paper PMC4336329 (PLoS ONE, 2015)
